Experimental data: US11634486B2, “Anti-SEZ6L2 antibodies and antibody drug conjugates” (Bluefin BioMedicine, Inc., priority 2016, dated 2023)

T1: SEZ6 (293-SEZ6) (Homo sapiens, UniProt Q53EL9)
T1 construct: expressed in transfected cells; host or cells: HEK 293
T1 sequence (Q53EL9 20-994): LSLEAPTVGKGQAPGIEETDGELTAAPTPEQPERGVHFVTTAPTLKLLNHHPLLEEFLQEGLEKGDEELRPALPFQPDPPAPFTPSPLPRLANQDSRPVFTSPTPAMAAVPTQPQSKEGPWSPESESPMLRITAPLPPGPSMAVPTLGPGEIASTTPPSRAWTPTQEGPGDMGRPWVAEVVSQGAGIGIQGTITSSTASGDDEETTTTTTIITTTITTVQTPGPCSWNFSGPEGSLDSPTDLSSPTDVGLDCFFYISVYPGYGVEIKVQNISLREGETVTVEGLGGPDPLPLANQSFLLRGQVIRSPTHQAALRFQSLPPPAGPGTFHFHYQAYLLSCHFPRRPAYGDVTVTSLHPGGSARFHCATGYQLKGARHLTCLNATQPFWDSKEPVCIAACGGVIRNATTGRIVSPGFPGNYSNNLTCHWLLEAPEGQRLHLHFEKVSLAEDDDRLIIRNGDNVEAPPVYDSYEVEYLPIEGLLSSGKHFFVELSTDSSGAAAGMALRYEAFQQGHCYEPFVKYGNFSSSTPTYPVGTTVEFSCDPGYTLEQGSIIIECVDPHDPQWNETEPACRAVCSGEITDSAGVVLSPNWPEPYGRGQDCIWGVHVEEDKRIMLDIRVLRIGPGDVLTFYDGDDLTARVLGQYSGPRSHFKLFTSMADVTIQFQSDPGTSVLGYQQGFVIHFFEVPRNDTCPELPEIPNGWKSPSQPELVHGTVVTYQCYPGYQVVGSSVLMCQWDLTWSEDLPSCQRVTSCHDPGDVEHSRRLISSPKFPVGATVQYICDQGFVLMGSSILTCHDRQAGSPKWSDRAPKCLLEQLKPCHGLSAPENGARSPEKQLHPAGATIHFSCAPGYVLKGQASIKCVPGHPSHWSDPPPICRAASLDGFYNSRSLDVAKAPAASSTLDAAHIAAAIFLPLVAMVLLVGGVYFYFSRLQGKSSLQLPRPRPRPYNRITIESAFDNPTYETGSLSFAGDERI

T2: SEZ6L (293-SEZ6L) (Homo sapiens, UniProt Q9BYH1)
T2 construct: expressed in transfected cells; host or cells: HEK 293
T2 sequence (Q9BYH1 29-1024): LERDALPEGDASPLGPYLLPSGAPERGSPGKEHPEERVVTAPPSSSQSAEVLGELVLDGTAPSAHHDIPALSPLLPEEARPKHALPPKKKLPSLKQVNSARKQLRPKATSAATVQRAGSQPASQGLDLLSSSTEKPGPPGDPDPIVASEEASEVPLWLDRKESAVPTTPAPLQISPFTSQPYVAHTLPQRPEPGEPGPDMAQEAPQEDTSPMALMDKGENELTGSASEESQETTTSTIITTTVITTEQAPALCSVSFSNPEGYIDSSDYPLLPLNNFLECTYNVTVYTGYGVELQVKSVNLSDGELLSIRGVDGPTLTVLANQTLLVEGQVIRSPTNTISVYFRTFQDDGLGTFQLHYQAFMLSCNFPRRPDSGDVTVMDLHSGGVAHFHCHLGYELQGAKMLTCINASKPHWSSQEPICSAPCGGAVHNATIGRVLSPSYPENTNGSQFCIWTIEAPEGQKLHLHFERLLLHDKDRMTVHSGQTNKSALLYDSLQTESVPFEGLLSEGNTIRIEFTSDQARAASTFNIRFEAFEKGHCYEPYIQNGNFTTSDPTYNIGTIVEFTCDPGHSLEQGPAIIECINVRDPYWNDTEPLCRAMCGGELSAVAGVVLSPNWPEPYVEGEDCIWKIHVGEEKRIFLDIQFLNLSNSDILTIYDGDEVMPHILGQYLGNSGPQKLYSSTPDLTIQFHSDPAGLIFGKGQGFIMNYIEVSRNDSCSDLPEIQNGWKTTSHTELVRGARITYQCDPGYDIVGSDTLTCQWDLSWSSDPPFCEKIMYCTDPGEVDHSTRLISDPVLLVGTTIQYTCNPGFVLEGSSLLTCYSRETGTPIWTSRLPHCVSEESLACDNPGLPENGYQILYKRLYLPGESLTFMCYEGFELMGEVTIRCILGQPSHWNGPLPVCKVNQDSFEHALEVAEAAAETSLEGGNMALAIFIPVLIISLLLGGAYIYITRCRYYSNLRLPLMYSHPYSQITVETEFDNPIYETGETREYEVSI

B1: 3A1: human anti-SEZ6L2 antibody, VH SEQ ID NO: 51, VL SEQ ID NO: 55 (antibody, V domains shown)
VH: QVQLVQSGAEVKKPGASVKVSCKASGFTFTGYYILWMRQAPGQGLEWMGWINPNNGGTHYAQKFQGRVTMTRDTSISTAYMELSRLRSDDTAVYYCARDSGHDWYFDLWGRGTLVTVSSA
VL: [sequence of about 100 residues not given]
B2: 3A2: human anti-SEZ6L2 antibody, VH SEQ ID NO: 73, VL SEQ ID NO: 77 (antibody, V domains shown)
VH: QVQLQESGPGLVKPSGTLSLTCAVSGGSISSYHWWSWVRQPPGKGLEWIGEIYHSGSTNYNPSLKSRVTISVDKSKNQFSLKLSSVTAADTAVYYCARWGRIAVADYWGQGTLVTVSSA
VL: [sequence of about 100 residues not given]TFGQGTKVEIKR
B3: 3A3: human anti-SEZ6L2 antibody, VH SEQ ID NO: 79, VL SEQ ID NO: 82 (antibody, V domains shown)
VH: QVQLQESGPGLVKPSGTLSLTCAVSGGSISSSNWWSWVRQPPGKGLEWIGEIYHSGSTNYNPSLKSRVTISVDKSKNQFSLKLSSVTAADTAVYYCAAYSGSYFEYWGQGTLVTVSSA
VL: [sequence of about 100 residues not given]GGGTKLEIKR

target: T3, Human SEZ6L2 (Homo sapiens, UniProt Q6UXD5); test: ForteBio Octet binding kinetics, Protein A biosensors; settings: not given
T3 construct: a protein composed of the extracellular portion of the human SEZ6L2 protein; His6 (C); made in house; host or cells: CHO (ExpiCHO)
Procedure: (§1) Affinity: The affinity of antibodies to various recombinant SEZ6L2 molecules was determined on an Octet Red (Pall, ForteBio) instrument. After loading reagents into a 96-well plate, the Octet Red with Protein A-conjugated biosensors was programmed as follows: 30 seconds for baseline #1; 120 seconds to immobilize the antibody; 30 seconds for baseline #2; 300 seconds for association of antibody to recombinant SEZ6L2; and 300-600 seconds for dissociation of recombinant SEZ6L2 from the antibody.
(§2) Table 10, below, indicates the KD, Kon, and Koff values for human antibodies 1A1, 3A1, 3A2, and 3A3 and humanized antibodies 16H8, 3E2, 20C4, and 2E4, for both human SEZ6L2 and cynomolgus monkey SEZL2, as determined by ForteBio Data Analysis 9.0 Kinetics software. Briefly, within the ForteBio Octet red96 instrument, Protein A biosensors were incubated with fixed amounts of the test antibody. The biosensors with bound antibody were then rinsed and dipped into wells containing varying concentrations of the recombinant target protein. Approximately 5 different concentrations were independently tested. After a period of time, the biosensors were dipped into buffer to allow the target protein to dissociate from the antibody. The ForteBio software package generated a best-fit curve for each of the profiles of the varying concentrations of target protein. The calculated affinity measurements were analyzed, and the rate constant values from the middle of the linear range were chosen.

T3 sequence (Q6UXD5 28-844 limits assumed): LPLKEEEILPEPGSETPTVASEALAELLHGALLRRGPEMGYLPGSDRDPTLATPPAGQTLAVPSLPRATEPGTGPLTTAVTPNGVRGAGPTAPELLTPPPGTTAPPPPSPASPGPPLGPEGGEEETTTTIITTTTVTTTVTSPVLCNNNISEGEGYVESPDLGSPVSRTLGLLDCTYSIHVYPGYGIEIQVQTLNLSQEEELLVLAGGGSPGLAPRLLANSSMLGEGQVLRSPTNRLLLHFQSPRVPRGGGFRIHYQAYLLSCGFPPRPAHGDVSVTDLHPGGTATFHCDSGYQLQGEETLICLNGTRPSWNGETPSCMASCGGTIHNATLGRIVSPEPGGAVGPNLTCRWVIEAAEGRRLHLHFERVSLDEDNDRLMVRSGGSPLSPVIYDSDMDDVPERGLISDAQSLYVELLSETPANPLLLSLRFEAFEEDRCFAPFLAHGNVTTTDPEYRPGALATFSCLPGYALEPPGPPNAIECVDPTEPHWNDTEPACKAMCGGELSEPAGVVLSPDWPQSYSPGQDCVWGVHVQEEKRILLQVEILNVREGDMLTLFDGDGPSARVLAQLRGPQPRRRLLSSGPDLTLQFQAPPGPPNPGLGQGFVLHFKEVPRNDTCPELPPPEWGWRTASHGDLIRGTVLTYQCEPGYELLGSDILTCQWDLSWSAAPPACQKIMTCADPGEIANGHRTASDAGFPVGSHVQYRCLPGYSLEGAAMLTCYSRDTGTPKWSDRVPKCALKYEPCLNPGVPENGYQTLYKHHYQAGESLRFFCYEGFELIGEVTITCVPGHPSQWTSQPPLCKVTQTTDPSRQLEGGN

Molecule | K(off) | K(on)
B1 | 1.37E−04 | 5.38E+05
B2 | 2.58E−03 | 9.54E+05
B3 | 6.02E−02 | 2.52E+06

system: Cynomolgus monkey SEZ6L2; test: as above; settings: not given
Procedure: as §1, §2

Molecule | K(off) | K(on)
B1 | 1.41E−04 | 4.44E+05
B2 | 2.52E−03 | 8.28E+05
B3 | 5.88E−02 | 2.24E+06

target: T1, SEZ6 (293-SEZ6); test: Flow cytometry specificity on overexpressing 293 cells; type: binding; settings: primary antibody 1 ug/ml, live cells on ice
Procedure: (§3) In order to assess whether SEZ6L2 antibody modulators immunospecifically associate with human SEZ6L2, and to determine whether the same modulators cross-react with SEZ6 and SEZ6L, flow cytometry was performed using a MACSquant™ as per the manufacturer's instructions. More particularly, modulators were tested for cross reactivity to cell lines that overexpress the human homologs of SEZ6 (293-SEZ6), SEZ6L (293-SEZ6L), and SEZ6L2 (293-SEZ6L2).
(§4) Briefly, staining for flow cytometry was performed in lx cold PBS with 0.5% BSA. Primary antibodies (1 ug/ml) were incubated with live cells on ice for one hour. After washing in the same buffer, cells were incubated with Alexa Fluro® 488-conjugated anti-human IgG secondary antibody @1:1000 (709-546-149, Jackson ImmunoResearch) on ice in the dark. After a 30 minute incubation, cells were washed in the same buffer and re-suspended in buffer plus propidium iodide (PI) to identify live cells. As a negative control, cells were incubated with secondary antibody alone. Acquisition of the data was performed on a MACSQuant® Flow Cytometer (Miltenyi Biotec) and analyzed with FlowJo software.

Molecule | binding to 293-SEZ6 cells by flow cytometry
B1 | no detectable binding
B2 | no detectable binding
B3 | no detectable binding

target: T2, SEZ6L (293-SEZ6L); test: as above; type: binding; settings: primary antibody 1 ug/ml, live cells on ice
Procedure: as §3, §4

Molecule | binding to 293-SEZ6L cells by flow cytometry
B1 | no detectable binding
B2 | no detectable binding
B3 | no detectable binding

target: T4, SEZ6L2 (293-SEZ6L2) (Homo sapiens, UniProt Q6UXD5); test: as above; type: binding; settings: primary antibody 1 ug/ml, live cells on ice
T4 construct: cDNA encoding the complete mature human SEZ6L2 protein containing a C-terminal FLAG tag was purchased from Origene; FLAG (C); host or cells: HEK 293
Procedure: as §3, §4

T4 sequence (Q6UXD5 28-910): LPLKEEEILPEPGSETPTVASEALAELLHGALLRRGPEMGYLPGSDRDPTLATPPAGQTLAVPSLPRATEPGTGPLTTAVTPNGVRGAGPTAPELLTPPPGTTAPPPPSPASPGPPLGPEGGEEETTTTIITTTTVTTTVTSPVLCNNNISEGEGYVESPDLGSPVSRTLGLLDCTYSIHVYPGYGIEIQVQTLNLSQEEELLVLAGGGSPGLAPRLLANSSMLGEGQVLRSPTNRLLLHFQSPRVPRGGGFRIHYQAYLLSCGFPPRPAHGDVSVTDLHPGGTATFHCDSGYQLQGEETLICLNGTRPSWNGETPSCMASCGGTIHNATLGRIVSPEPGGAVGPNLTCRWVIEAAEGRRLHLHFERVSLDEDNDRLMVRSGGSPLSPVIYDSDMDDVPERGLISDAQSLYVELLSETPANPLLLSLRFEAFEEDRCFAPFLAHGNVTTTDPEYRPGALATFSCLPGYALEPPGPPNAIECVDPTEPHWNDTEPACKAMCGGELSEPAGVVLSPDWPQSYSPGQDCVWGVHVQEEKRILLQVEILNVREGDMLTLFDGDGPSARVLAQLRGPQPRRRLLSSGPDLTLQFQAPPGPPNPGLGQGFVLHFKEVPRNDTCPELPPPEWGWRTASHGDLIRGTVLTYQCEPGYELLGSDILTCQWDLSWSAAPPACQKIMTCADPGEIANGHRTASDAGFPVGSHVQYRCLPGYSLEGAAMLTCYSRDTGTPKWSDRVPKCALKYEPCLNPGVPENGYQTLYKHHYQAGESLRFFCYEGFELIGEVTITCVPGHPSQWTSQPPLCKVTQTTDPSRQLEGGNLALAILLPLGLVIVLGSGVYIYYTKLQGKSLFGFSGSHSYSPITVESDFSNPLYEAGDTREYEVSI

Molecule | binding to 293-SEZ6L2 cells by flow cytometry
B1 | recognize a cell line that overexpresses SEZ6L2
B2 | recognize a cell line that overexpresses SEZ6L2
B3 | recognize a cell line that overexpresses SEZ6L2
